Changes are numbered by the printed parent chain. No constants are given. Whether binding was seen depends on the method and setting. Binding seen in cells or lysates may run through a third protein. Some entries that bind do so weakly or less than the wild type. Sequences can lack the tags named with a protein.
T1: GST-fused polo-box domain (PBD) of Cdc5 carrying the mut1 mutation (W517F, V518A, L530A) (S. cerevisiae) (UniProt P32562)
T1 sequence: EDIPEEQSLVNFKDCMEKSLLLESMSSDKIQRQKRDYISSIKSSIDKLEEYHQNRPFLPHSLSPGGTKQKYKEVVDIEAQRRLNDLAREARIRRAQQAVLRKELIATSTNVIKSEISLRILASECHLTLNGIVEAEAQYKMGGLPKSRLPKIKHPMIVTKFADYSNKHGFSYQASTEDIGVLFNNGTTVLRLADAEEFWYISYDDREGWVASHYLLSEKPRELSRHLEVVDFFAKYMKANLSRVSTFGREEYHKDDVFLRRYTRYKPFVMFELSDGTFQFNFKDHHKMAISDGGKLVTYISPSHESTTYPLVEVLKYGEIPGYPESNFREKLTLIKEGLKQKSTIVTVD

T2: GST-fused polo-box domain (PBD) of Cdc5, wild type (S. cerevisiae) (UniProt P32562)
T2 sequence: T1 sequence with F161W, A162V, A174L

B1: HA-tagged cohesin subunit Smc1 (protein, UniProt P32908 1-1225)
chain: MGRLVGLELSNFKSYRGVTKVGFGESNFTSIIGPNGSGKSNMMDAISFVLGVRSNHLRSNILKDLIYRGVLNDENSDDYDNEGAASSNPQSAYVKAFYQKGNKLVELMRIISRNGDTSYKIDGKTVSYKDYSIFLENENILIKAKNFLVFQGDVEQIAAQSPVELSRMFEEVSGSIQYKKEYEELKEKIEKLSKSATESIKNRRRIHGELKTYKEGINKNEEYRKQLDKKNELQKFQALWQLYHLEQQKEELTDKLSALNSEISSLKGKINNEMKSLQRSKSSFVKESAVISKQKSKLDYIFKDKEKLVSDLRLIKVPQQAAGKRISHIEKRIESLQKDLQRQKTYVERFETQLKVVTRSKEAFEEEIKQSARNYDKFKLNENDLKTYNCLHEKYLTEGGSILEEKIAVLNNDKREIQEELERFNKRADISKRRITEELSITGEKLDTQLNDLRVSLNEKNALHTERLHELKKLQSDIESANNQEYDLNFKLRETLVKIDDLSANQRETMKERKLRENIAMLKRFFPGVKGLVHDLCHPKKEKYGLAVSTILGKNFDSVIVENLTVAQECIAFLKKQRAGTASFIPLDTIETELPTLSLPDSQDYILSINAIDYEPEYEKAMQYVCGDSIICNTLNIAKDLKWKKGIRGKLVTIEGALIHKAGLMTGGISGDANNRWDKEEYQSLMSLKDKLLIQIDELSNGQRSNSIRAREVENSVSLLNSDIANLRTQVTQQKRSLDENRLEIKYHNDLIEKEIQPKITELKKKLDDLENTKDNLVKEKEALQNNIFKEFTSKIGFTIKEYENHSGELMRQQSKELQQLQKQILTVENKLQFETDRLSTTQRRYEKAQKDLENAQVEMKSLEEQEYAIEMKIGSIESKLEEHKNHLDELQKKFVTKQSELNSSEDILEDMNSNLQVLKRERDGIKEDIEKFDLERVTALKNCKISNINIPISSETTIDDLPISSTDNEAITISNSIDINYKGLPKKYKENNTDSARKELEQKIHEVEEILNELQPNARALERYDEAEGRFEVINNETEQLKAEEKKILNQFLKIKKKRKELFEKTFDYVSDHLDAIYRELTKNPNSNVELAGGNASLTIEDEDEPFNAGIKYHATPPLKRFKDMEYLSGGEKTVAALALLFAINSYQPSPFFVLDEVDAALDITNVQRIAAYIRRHRNPDLQFIVISLKNTMFEKSDALVGVYRQQQENSSKIITLDLSNYAE
B2: HA-tagged cohesin subunit Smc3 (protein, UniProt P47037 1-1230)
chain: MYIKRVIIKGFKTYRNETIIDNFSPHQNVIIGSNGSGKSNFFAAIRFVLSDDYSNLKREERQGLIHQGSGGSVMSASVEIVFHDPDHSMILPSGVLSRGDDEVTIRRTVGLKKDDYQLNDRNVTKGDIVRMLETAGFSMNNPYNIVPQGKIVALTNAKDKERLQLLEDVVGAKSFEVKLKASLKKMEETEQKKIQINKEMGELNSKLSEMEQERKELEKYNELERNRKIYQFTLYDRELNEVINQMERLDGDYNNTVYSSEQYIQELDKREDMIDQVSKKLSSIEASLKIKNATDLQQAKLRESEISQKLTNVNVKIKDVQQQIESNEEQRNLDSATLKEIKSIIEQRKQKLSKILPRYQELTKEEAMYKLQLASLQQKQRDLILKKGEYARFKSKDERDTWIHSEIEELKSSIQNLNELESQLQMDRTSLRKQYSAIDEEIEELIDSINGPDTKGQLEDFDSELIHLKQKLSESLDTRKELWRKEQKLQTVLETLLSDVNQNQRNVNETMSRSLANGIINVKEITEKLKISPESVFGTLGELIKVNDKYKTCAEVIGGNSLFHIVVDTEETATLIMNELYRMKGGRVTFIPLNRLSLDSDVKFPSNTTTQIQFTPLIKKIKYEPRFEKAVKHVFGKTIVVKDLGQGLKLAKKHKLNAITLDGDRADKRGVLTGGYLDQHKRTRLESLKNLNESRSQHKKILEELDFVRNELNDIDTKIDQVNGNIRKVSNDRESVLTNIEVYRTSLNTKKNEKLILEESLNAIILKLEKLNTNRTFAQEKLNTFENDLLQEFDSELSKEEKERLESLTKEISAAHNKLNITSDALEGITTTIDSLNAELESKLIPQENDLESKMSEVGDAFIFGLQDELKELQLEKESVEKQHENAVLELGTVQREIESLIAEETNNKKLLEKANNQQRLLLKKLDNFQKSVEKTMIKKTTLVTRREELQQRIREIGLLPEDALVNDFSDITSDQLLQRLNDMNTEISGLKNVNKRAFENFKKFNERRKDLAERASELDESKDSIQDLIVKLKQQKVNAVDSTFQKVSENFEAVFERLVPRGTAKLIIHRKNDNANDHDESIDVDMDAESNESQNGKDSEIMYTGVSISVSFNSKQNEQLHVEQLSGGQKTVCAIALILAIQMVDPASFYLFDEIDAALDKQYRTAVATLLKELSKNAQFICTTFRTDMLQVADKFFRVKYENKISTVIEVNREEAIGFIRGSNKFAEV
B3: HA-tagged Scc1 M fragment with five serines substituted to alanine (M-5A) (domain or fragment, UniProt Q12158 158-275)
chain: QENSMERKVQGAAPWDTSLEVGRRFAPDEDFEHNNLAAMNLDFDIEEGPITSKSWEEGTRQAARNFDTHENYIQDDDFPLDDAGTIGWDLGITEKNDQNNDDDDNSVEQGRRLGESIM
B4: HA-tagged Scc1 M fragment M-10A+plk(−) (domain or fragment, UniProt Q12158 158-275)
chain: QENAMERKVQGAAPWDAALEVGRRFSPDEDFEHNNLSSMNLDFDIEEGPIAAKAWEEGARQSSRNFDAHENYIQDDDFPLDDAGAIGWDLGIAEKNDQNNDDDDNAVEQGRRLGEAIM
B5: HA-tagged Scc1 fragment NM (amino acids 1-269) (domain or fragment, UniProt Q12158 1-269)
chain: MVTENPQRLTVLRLATNKGPLAQIWLASNMSNIPRGSVIQTHIAESAKEIAKASGCDDESGDNEYITLRTSGELLQGIVRVYSKQATFLLTDIKDTLTKISMLFKTSQKMTSTVNRLNTVTRVHQLMLEDAVTEREVLVTPGLEFLDDTTIPVGLMAQENSMERKVQGAAPWDTSLEVGRRFSPDEDFEHNNLSSMNLDFDIEEGPITSKSWEEGTRQSSRNFDTHENYIQDDDFPLDDAGTIGWDLGITEKNDQNNDDDDNSVEQGRR
B6: HA-tagged Scc1 M fragment with alanine substitution of the two Cdc5 phosphorylation sites (M-plk(−)) (domain or fragment, UniProt Q12158 158-275)
chain: B3 chain with S18A, A26S, A37S, A38S, A62S, A63S, S106A
modifications: slowly migrating (phosphorylated) forms still present; sites not determined
B7: HA-tagged cohesin subunit Scc3 (protein, UniProt P40541 1-1150)
chain: MTAVRRSTRIRTKSQVIEEDYDDEQNTSAQHVESDKITAKTQHEEEEEQDTGESEESSSEDDYEDQDDDDYVDTATAKRKSRKRKPKSASNTSSKRQKKKPTSAQKSAVSHAPAYHRSKKDQDQYLEIAKDFQPTELFDILSTSEDVSIEELLREWLETYSENRDKFLQEFINLLLNCCGSVARVEDHDVHSNESSNETIGEIQLLFQRQKLHEFYLLISKENKKRKNFKMGPLYQNFAEFMTKLLEVANDLQLLYVESDEDDTQIVTGNLVLDLLTWLSSFSVCKIRCFRYISTLTLYLFQDYLTQQAVNLEKNYLAKLSKQLSLEEKKKRPNNKTLEKLESTIAETQGSKVVIDSIIDNIVKLCFVHRYKDVSDLIRSESMLHLSIWIKNYPEYFLKVTFLKYFGWLLSDNSVSVRLQVTKILPHLIIQNHNSKSTDNSAIRQVFERFKTKILEVAIRDVNLDVRIHSIQVLTEASSLGYLDDSEILIISSLMFDEEFDPFKTSSFNKRSKFLSTVAKFLARVIKEKFDEFIKTHEDLPKEVDGLEVGPVVQVGIFIKILNDSLIYHLKDCAEVDSRTKIRMLTQAAEFLSPYISTHLKTICNLLISDTESNELIQKLQNSANNNSDDEDVDDEELDITPLFPIDRNSTILYLNVFHGLCAGANNPKIQTKDSVKEIVLPLFYDLLNAASIESADILCPLLESFITFSLDDWISIGYETELKKITDKTIKAFMDSTIGNSKVDMKYDIFAKFIHHIHHFEKKELQEKFLNQIATLKIHLKKFLQEKMDPNNSRDDYKDLTCSLYELYINKLTILGRDYPIEVDEELLQLFLNNFVSRIPIMFQDFDDSTAQEINFKMLVLLATWNLEKWREIIEKVRDYENSISKDLRSVWKPIAAIIGRLNTLVISLAATNETFENINSLFYLKWSACTSLMDIIVAIKIFELKLPADATTWRYSMSEQFPFYLHDNASKVLLKIFLYLESLFAKQVDVQLERVADEDANLNDLPETGFFENIETEFLLFTVKLKGLMKLNILDERFASRVALNKEKLGPLFKKIVDDTIMENPEPNKKNIQKAKSNQTQREKAPLQPNSERETDHANTENNDPDIPMTIDLEPIEESSQNNSELAPIEEHPTVVDAIDNSDEITQD

target: T1, GST-fused polo-box domain (PBD) of Cdc5 carrying the mut1 mutation (W517F, V518A, L530A) (S. cerevisiae); assay: pull-down; GST-fused PBD, Cdc5 or GST only and an HA-tagged cohesin subunit or Scc1 fragment co-overexpressed in G2/M-arrested (benomyl) yeast cells; clarified lysate on glutathione-Sepharose 4B beads 1 h at 4 °C; 40 mM Hepes-KOH pH 7.4, 140 mM NaCl, 10% glycerol, 0.1% Triton X-100, 1 mM DTT, protease and phosphatase inhibitors; three washes; anti-HA and anti-GST Western blot

Binder	binding
B1	no binding
B2	no binding

target: T2, GST-fused polo-box domain (PBD) of Cdc5, wild type (S. cerevisiae); assay: as above

Binder	binding
B3	binds weakly
B4	binds weakly
B5	binds
B6	binds
B1	no binding
B2	no binding
B7	no binding

From publication PMC5016123
